Laboratory results as given in PubChem BioAssay AID1458 (National Center for Advancing Translational Sciences (NCATS), 2008).
Screen size: about 210,000 compounds; about 5,900 (2.8%) were called active. Inconclusive means that the source gave no clear call. Such entries were picked first, then a sample of the others. The call rests on the fitted dose curve; in most records, active means well fitted activation curve with a large enough effect; inconclusive means small, poorly fitted or top-dose-only effect; inactive means no such curve, though single readings can be large or run the other way. Where the call is inconclusive, the potency comes from a doubtful curve fit.
Potency means the concentration at half of the fitted maximal effect; tags describe the fitted curve by direction and shape.

Assay: qHTS Assay for Enhancers of SMN2 Splice Variant Expression; further: nearly all actives have a fitted effect of over 55% in size
Conditions: HEK293 SMN2-luciferase splicing reporter, luminescence, 30-36 h; series mostly up to 46.1 µM
How it was run: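 qHTS luciferase splicing reporter: luminescence rises when SMN2 exon 7 is included in transfected HEK293 cells. Compound exposure lasted 30-36 h at 37C, with 4.5 mM final sodium butyrate as control, followed by a ONE-Glo read.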
For `CCCn1c(C)cc(C(=O)CSc2nc3ccccc3c(=O)n2Cc2ccco2)c1C`, the Potency was inconclusive: 8.91 µM [activator, partial curve, poor fit]. For `CN(C)CCCNc1cc(O)c2c(c1O)C(=O)c1ccccc1C2=O`, the Potency was inconclusive: 4.47 µM [activator, single point]. For `Cc1ccc(-c2noc(CN(C3CCCCC3)S(=O)(=O)c3ccc(Cl)cc3)n2)cc1`, the Potency was “inactive”. For `CC1CCc2c(nc3sc4c(c3c2N)CCCC4)C1` (stereo not drawn), the Potency was inconclusive: 2.24 µM [activator, partial curve, poor fit]. In the case of `Cc1ccc2nc(-c3ccc(NC(=O)Cc4ccccc4)cc3)sc2c1`, the Potency is reported as inconclusive: 5.01 µM [activator, partial curve]. With `CCc1cccc(C)c1NC(=O)Nc1ccc2c(c1)OCO2` the Potency was “inactive”. With `Nc1ncccc1OCc1ccc(Br)cc1` the Potency was inconclusive: 11.2 µM [activator, single point]. For `COc1ccc(-c2cc3nc(C)c(CCC(=O)NCc4ccco4)c(C)n3n2)c(OC)c1`, the Potency was “inactive”. With `CCOC(=O)COc1c(-c2ccc(OC)cc2)oc2ccccc2c1=O` the Potency was “inactive”. With `COc1ccc(NS(=O)(=O)c2cccc(N/C(=N\S(=O)(=O)c3ccccc3)c3ccc(F)cc3)c2)cc1` the Potency was inconclusive: 0.0282 µM [activator, full curve]. For `Cc1cccc(C)c1Nc1nnc(SCC(=O)NC2CCS(=O)(=O)C2)s1` (stereo not drawn), the Potency was inconclusive: 0.282 µM [activator, partial curve]. In the case of `O=C1OC(Cc2ccccn2)C(O)=C1C1=NCCCN1` (stereo not drawn), the Potency is reported as inconclusive: 20 µM [activator, partial curve, poor fit]. With `COC(OC)c1ccnc(-c2ccc(OC(C)=O)cc2)n1` the Potency was inconclusive: 12.6 µM [activator, single point]. With `C/C(=N\NC(=O)c1ccc(Cl)cc1)c1cccc(NC(=O)c2cccnc2)c1` the Potency was inconclusive: 22.4 µM [activator, single point]. In the case of `O=C1OC(c2ccccc2)=C/C1=C/N1CCCCC1`, the Potency is reported as inconclusive: 15.8 µM [activator, single point]. With `Cc1cccc(-n2cnc3cc(C(=O)N4CCCCC4)ccc32)c1` the Potency was inconclusive: 0.0316 µM [activator, full curve]. In the case of `O=C1c2ccccc2C(=O)N1CCSC(=S)N1CCOCC1`, the Potency is reported as inconclusive: 22.4 µM [activator, single point]. With `COc1ccc(/C=C/C(=O)N2CCNC(=O)C2)c(OC)c1` the Potency was inconclusive: 10 µM [activator, partial curve]. For `COc1ccccc1NC(=O)C1CCCCC1`, the Potency was inconclusive: 5.01 µM [activator, full curve, poor fit]. With `COc1cc(NC(=O)c2ccc(COc3ccccc3Br)o2)cc(OC)c1OC` the Potency was inconclusive: 3.16 µM [activator, partial curve, poor fit]. In the case of `Nc1nc(CSC(=S)N2CCCCC2)nc(Nc2ccccc2)n1`, the Potency is reported as inconclusive: 12.6 µM [activator, partial curve]. In the case of `CCN(CC)CCCNc1nc2cc(OC)c(OC)cc2c2nc(-c3ccccc3)nn12`, the Potency is reported as inconclusive: 8.91 µM [activator, partial curve]. For `Nc1ccc(Cl)c(-c2nc3ncccc3o2)c1`, the Potency was inconclusive: 0.282 µM [activator, partial curve]. With `COc1ccc(OC)c(-c2csc(NC(=O)CSc3ccc(Br)cc3)n2)c1` the Potency was “inactive”. With `Cc1ccnc(SCC(=O)c2ccc(Br)cc2)c1C#N` the Potency was active: 14.1 µM. In the case of `CCC(C)c1ccc(OCC(=O)Nc2cccc3ccc(C)nc23)cc1` (stereo not drawn), the Potency is reported as inconclusive: 25.1 µM [activator, single point]. In the case of `CCCCCc1nc2sc3c(c2c(=O)n1N)CCC3`, the Potency is reported as “inactive”. In the case of `CC(NC(=O)c1ccccc1NC(=O)c1ccco1)C(=O)O` (stereo not drawn), the Potency is reported as active: 0.316 µM. With `NNC(=O)CN1CCN(c2ncc(C(F)(F)F)cc2Cl)CC1` the Potency was “inactive”. In the case of `Cc1c(Cl)cccc1NC(=O)Nc1ccc(C(=O)N2CCCC2)cc1`, the Potency is reported as inconclusive: 35.5 µM [activator, single point]. For `COc1cc(/C=N/N(C)c2ccccc2)cc(Cl)c1O`, the Potency was “inactive”. In the case of `Cc1cc(Nc2ccc(Br)cc2)n2nc(-c3ccccc3C)nc2n1`, the Potency is reported as “inactive”. With `Cc1c(/C=N/NC(=O)C(C)(C)Oc2ccc(Cl)cc2)cnn1C` the Potency was inconclusive: 4.47 µM [activator, full curve, poor fit]. For `COc1cc(/C=C/c2sc3ccccc3[n+]2CCCS(=O)(=O)[O-])ccc1O`, the Potency was “inactive”. In the case of `CN(C)C=NC(=O)c1cc(C(=O)c2ccc(C(C)(C)C)cc2)c[nH]1`, the Potency is reported as active: 3.16 µM. With `CC(SCc1ccccc1)C(=O)NC1CCCC1` (stereo not drawn) the Potency was inconclusive: 0.0112 µM [activator, full curve, poor fit]. With `COc1cc2[nH]c(=O)n(C3CCCCC3)c(=O)c2cc1OC` the Potency was inconclusive: 6.31 µM [activator, full curve]. For `CCn1c(=O)n(CC)c2cc(S(N)(=O)=O)c(C)cc21`, the Potency was “inactive”. For `Cc1c(NC(=O)Oc2ccccc2)sc(=S)n1C`, the Potency was “inactive”. With `CCSc1nnc(NC(=O)c2ccc3ccccc3n2)s1` the Potency was active: 14.1 µM. In the case of `COC(=O)c1cc(NC(=O)CCc2c(C)nc3c(c(C)nn3C(C)(C)C)c2C)cc(C(=O)OC)c1`, the Potency is reported as “inactive”. With `Cc1ccc(C)c(CSc2nnc(-c3ccccn3)n2N)c1` the Potency was “inactive”. For `Clc1ccc(-c2nnc(COc3ncnc4ccccc34)o2)cc1`, the Potency was “inactive”. With `CCC(C(=O)NCCC1=CCCCC1)c1ccccc1` (stereo not drawn) the Potency was “inactive”. With `Cc1ccc(C(=O)c2ccc(O)cc2)cc1C` the Potency was inconclusive: 0.0794 µM [activator, full curve]. In the case of `O=C(c1cccc(S(=O)(=O)N2CCc3ccccc32)c1)N1CCN(c2ccccn2)CC1`, the Potency is reported as inconclusive: 20 µM [activator, single point]. In the case of `COc1cc(-c2nc(S(=O)(=O)c3ccc(C)cc3)c(N3CCOCC3)o2)cc(OC)c1OC`, the Potency is reported as inconclusive: 14.1 µM [activator, partial curve]. With `Cc1cc(C(=O)Nc2sc3c(c2C#N)CCC(C)C3)cs1` (stereo not drawn) the Potency was active: 3.98 µM. In the case of `COc1cc(C2NC(C(=O)O)Cc3c2[nH]c2ccccc32)cc(OC)c1OC` (stereo not drawn), the Potency is reported as inconclusive: 35.5 µM [activator, partial curve, poor fit]. For `CC(=O)c1ccc(N(C)C)cc1`, the Potency was “inactive”. With `O=C(COC(=O)C1CCN(S(=O)(=O)c2ccccc2C(F)(F)F)CC1)NCc1ccc(F)cc1` the Potency was inconclusive: 35.5 µM [activator, single point]. For `CCN1CCN(C(=O)CN(c2cccc(Br)c2)S(=O)(=O)c2ccccc2)CC1`, the Potency was inconclusive: 35.5 µM [activator, single point]. In the case of `COc1ccc(/C=N/n2c(=O)[nH]c3c([nH]c4ccc(C)cc43)c2=O)cc1CN1CCOCC1`, the Potency is reported as inconclusive: 2.24 µM [activator, partial curve]. For `CCN(CC)C(=O)c1c(-c2ccccc2)c(-c2ccccc2)nn(CC)c1=O`, the Potency was inconclusive: 39.8 µM [activator, partial curve, poor fit]. In the case of `COc1ccccc1N1CCN(C(=O)CN2C(=O)COc3ccc(S(=O)(=O)N4CCOCC4)cc32)CC1`, the Potency is reported as “inactive”. In the case of `COC(=O)c1cccc(NC(=O)CN2CCN(Cc3ccccc3)CC2)c1`, the Potency is reported as inconclusive: 7.94 µM [activator, partial curve, poor fit]. With `CCOC(=O)c1cc2c(=O)n3ccccc3nc2n(C(C)C)c1=NC(=O)C(C)(C)Oc1ccc(Cl)cc1` the Potency was “inactive”. In the case of `COc1ccc(NC(=O)CSc2ccccc2)c([N+](=O)[O-])c1`, the Potency is reported as inconclusive: 35.5 µM [activator, partial curve, poor fit]. In the case of `Cn1nnc2cc(C(=O)NCc3ccco3)ccc21`, the Potency is reported as “inactive”. In the case of `c1ccc(C2=Nn3c(nnc3-c3cc(-c4ccccc4)n[nH]3)SC2)cc1`, the Potency is reported as inconclusive: 35.5 µM [activator, partial curve, poor fit]. For `COc1cccc(-c2nccc(NCc3cccc(C)c3)n2)c1`, the Potency was active: 11.2 µM. For `O=[N+]([O-])c1ccc(O)c(/C=N/n2cnc3ccccc32)c1`, the Potency was “inactive”. For `O=C(C1CCCO1)N1CCN(c2c3c(nc4cc(-c5ccc(F)cc5)nn24)CCC3)CC1` (stereo not drawn), the Potency was “inactive”. With `O=C(NCCc1ccc(F)cc1)N1CCOCC1` the Potency was inconclusive: 15.8 µM [activator, partial curve, poor fit]. With `C/C(N)=C(/C#N)C(=O)CSc1nnc(Nc2cccc(C)c2C)s1` the Potency was inconclusive: 22.4 µM [activator, partial curve, poor fit]. With `Nc1cnn(Cc2ccc(F)cc2)c1` the Potency was “inactive”. In the case of `Cc1cccc(NCc2nc3ccccc3n2C)c1`, the Potency is reported as inconclusive: 12.6 µM [activator, single point]. With `O=c1c(-c2ccccc2)coc2cc(O)cc(O)c12` the Potency was inconclusive: 31.6 µM [activator, single point]. For `O=[N+]([O-])c1cc(/C=N/Nc2nc(N3CCCCC3)nc(N3CCCCC3)n2)ccc1O`, the Potency was inconclusive: 0.178 µM [activator, full curve, poor fit]. For `CSc1nnc(C)c(=O)n1COC(=O)COc1ccc(F)cc1`, the Potency was inconclusive: 0.0891 µM [activator, full curve, poor fit]. For `CCOC(=O)c1cnn(-c2ccc(C(F)(F)F)cn2)c1N`, the Potency was inconclusive: 12.6 µM [activator, single point]. With `O=Cc1ccc(OCc2cn3ccccc3n2)cc1` the Potency was active: 11.2 µM. For `O=C(Nc1ccc(NC(=O)c2ccccn2)cc1)C(=O)Nc1ccc2c(c1)OCCO2`, the Potency was inconclusive: 10 µM [activator, partial curve, poor fit].
